Laboratory results taken from the supplement of paper PMC4604168 (melanoma cell lines).
The other results are listed elsewhere or left out. Most values come without repeats; read them as rough.

Legend:
Assay in all cases: cell count relative to DMSO control; melanoma cells; higher = more viable cells
Conditions in all cases: library dose: low library concentration; 72 h
WM115 = tested on: WM115
WM1716 = tested on: WM1716
WM1745 = tested on: WM1745
WM3526 = tested on: WM3526
WM3619 = tested on: WM3619
WM451Lu = tested on: WM451Lu
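Note: cell number obtained by counting DAPI-stained nuclei in high-throughput microscope images with image analysis software, screen run in 1,536-well plates.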

Compound | cell count (WM115) [%] | cell count (WM1716) [%] | cell count (WM1745) [%] | cell count (WM3526) [%] | cell count (WM3619) [%] | cell count (WM451Lu) [%]
CCCCCCCCc1ccc(CCC(N)(CO)CO)cc1 [fingolimod] + Clc1ccc(Nc2nnc(Cc3ccncc3)c3ccccc23)cc1 [vatalanib] (first compound 2 µM, partner dose 2 µM) | 82.3 | 81.6 | 73.6 | 76.6 | 83.7 | 93.1
CCCCCCCCc1ccc(CCC(N)(CO)CO)cc1 [fingolimod] + Cn1c(Nc2ccc(C(F)(F)F)cc2)nc2cc(Oc3ccnc(-c4ncc(C(F)(F)F)[nH]4)c3)ccc21 [CHIR265] (first compound 2 µM, partner dose 0.08 µM) | 55.5 | 63.6 | 70.5 | 45.1 | 55.6 | 104
CCc1ccc(CCOc2ccc(CC3SC(=O)NC3=O)cc2)nc1 (configuration not stated) [pioglitazone] + COc1ccc(COc2ccc(Cc3cnc(N)nc3N)cc2OC)cc1 [GW2580] (first compound 2 µM, partner dose 1 µM) | 104 | 107 | 108 | 95.6 | 107 | 101
NC(=O)c1ccc(N(C(N)=O)c2c(F)cccc2F)nc1-c1ccc(F)cc1F + C[C@@H](Oc1cc(-c2cnn(C3CCNCC3)c2)cnc1N)c1c(Cl)ccc(F)c1Cl [Crizotinib] (first compound 0.4 µM, partner dose 0.2 µM) | 81.4 | 106 | 106 | 87.9 | 92 | 97.8
NC(=O)c1ccc(N(C(N)=O)c2c(F)cccc2F)nc1-c1ccc(F)cc1F + CC(C)C[C@H](NC(=O)[C@H](Cc1ccccc1)NC(=O)c1cnccn1)B(O)O [Bortezomib] (first compound 0.4 µM, partner dose 0.001 µM) | 96.4 | 54.6 | 96.3 | 104 | 36.1 | 99.4
Cc1ccc(NC(=O)c2cccc(N(C)C)c2)cc1NC(=O)c1ccc(O)cc1 + Oc1cc(-c2nc(-c3ccccc3)[nH]c2-c2ccncc2)ccc1Cl [L779450] (first compound 2 µM, partner dose 0.2 µM) | 86.3 | 95.2 | 88.1 | 73 | 96.8 | 105
COc1cc2c(Oc3ccc4[nH]c(C)cc4c3F)ncnc2cc1OCCCN1CCCC1 [cediranib] + O=c1cc(-c2cccc3c2Sc2ccccc2S3)oc(N2CCOCC2)c1 [KU55933] (first compound 0.4 µM, partner dose 1 µM) | 107 | 107 | 111 | 105 | 114 | 98.4
CCCCCCCCc1ccc(CCC(N)(CO)CO)cc1 [fingolimod] + C=CCNC1=C2C[C@@H](C)C[C@H](OC)[C@H](O)[C@@H](C)/C=C(\C)[C@H](OC(N)=O)[C@@H](OC)/C=C\C=C(/C)C(=O)NC(=CC1=O)C2=O [Tanespimycin] (first compound 2 µM, partner dose 0.002 µM) | 98.2 | 54.8 | 64.4 | 79.4 | 67.7 | 74.1
CC(C)(C)c1cnc(CSc2cnc(NC(=O)C3CCNCC3)s2)o1 + CCN(CC)CCCCNc1ncc2cc(-c3cc(OC)cc(OC)c3)c(NC(=O)NC(C)(C)C)nc2n1 [PD173074] (first compound 0.01 µM, partner dose 0.1 µM) | 92.2 | 88.4 | 99.6 | 105 | 107 | 93.1
CCc1ccc(CCOc2ccc(CC3SC(=O)NC3=O)cc2)nc1 (configuration not stated) [pioglitazone] + O=C(Nc1ccccc1)c1cc([N+](=O)[O-])ccc1Cl [GW9662] (first compound 2 µM, partner dose 2 µM) | 94.3 | 137 | 94.2 | 102 | 85.6 | 76.6
NC(=O)c1ccc(N(C(N)=O)c2c(F)cccc2F)nc1-c1ccc(F)cc1F + Nc1nc(F)nc2c1ncn2[C@@H]1O[C@H](CO)[C@@H](O)[C@@H]1O [fludarabine] (first compound 0.4 µM, partner dose 0.2 µM) | 94 | 109 | 90.6 | 28.9 | 116 | 51.6
Cc1ccc(NC(=O)c2cccc(N(C)C)c2)cc1NC(=O)c1ccc(O)cc1 + CC(C)(C)c1cnc(CSc2cnc(NC(=O)C3CCNCC3)s2)o1 [SNS-032] (first compound 2 µM, partner dose 0.01 µM) | 108 | 118 | 101 | 103 | 95.6 | 90.9
